PubChem BioAssay (NCI)
“And” between values parts separate entries of the source, which are not always exact repeats. Identical values can stand only once.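 Test compounds were applied to cells in 96-well plates for 48 hours at 5 doses. The concentration for 50% growth inhibition is given as GI50. Definition used: TGI = concentration required for complete inhibition of growth.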 Square brackets hold non-standard residues; d marks the D form. Peptide text beside a SMILES is read from it. * marks the point of attachment. ξ: configuration not given here. 4Abz = Nc1ccc(C(=O)O)cc1; ξL = CC(C)CC(N)C(=O)O; NHOH = ON*

Tested on: NCI-H322M lung
Test: NCI tumour cell line growth inhibition, 48 h

Compound	TGI	GI50
COc1c(Cl)ccc(Cl)c1-c1nnc(-c2c(Cl)c(Cl)c(Cl)c(Cl)c2-c2nc3ccc(C(=O)c4ccccc4)cc3[nH]2)o1	> 100 µM	
COc1cc(OC)c(Oc2cccc(OC)c2OC)c(OC)c1	> 100 µM	
COc1ccc(CNCCN2C(=O)c3ccc4c5c(ccc(c35)C2=O)C(=O)N(CCNCc2ccc(OC)cc2)C4=O)cc1	0.92 µM	0.254 µM
CN(CCN(C)Cc1ccc(Cl)c(Cl)c1)CCN1CCCC1	> 100 µM	
Cc1cc(C)c(-c2noc(-c3ccc(Cl)cc3)c2C2=NCCN2)c(C)c1	96.9 µM	
CC(C)CCC[C@@H](C)C1CCC2[C@@H]3CC=C4C[C@@H](OC(=O)CCC(=O)NCC[N+](C)(C)CCCS(=O)(=O)[O-])CC[C@]4(C)C3CC[C@@]21C (stereo partly specified)	49.7 µM	
O=C(CCCCCCCCC(=O)OCCCn1cc(C(=O)NC(=O)OCc2ccccc2)c(=O)[nH]c1=O)OCCCn1cc(C(=O)NC(=O)OCc2ccccc2)c(=O)[nH]c1=O	> 100 µM	
Cc1cc(C)c2c(=O)n(CC(O)CN3CCN(c4ncccn4)CC3)sc2n1 (stereo unspecified)	30.2 µM	
O=C1CCCn2c3ccccc3c3ccnc1c32	> 100 µM	
OCCOCn1nc(-c2ccccc2)nc1-c1cnccn1	> 100 µM	
COc1cc(C2C3=C(COC3=O)N(CCO)c3cc4c(cc32)OCCO4)cc(OC)c1O (stereo unspecified)	> 50 µM	> 16.1 µM
CS(=O)(=O)c1ccc(C2=C(c3ccccc3)C(=O)OC2)cc1	> 100 µM	
N.N.NCCCCN.O=C([O-])CCl.O=C([O-])CCl.O=C([O-])CCl.O=C([O-])CCl.[Pt+4].[Pt+4]	> 50 µM	
COc1ccc(OC)c(-c2cc(-c3ccc(Cl)cc3)nn2-c2ccc(S(N)(=O)=O)cc2)c1	20 µM	4.7 µM
O=C(N/C(=C\c1cc(Cl)ccc1Cl)c1nc2ccccc2[nH]1)c1ccccc1	> 100 µM	
COc1cc(C(C)(C)C)c(OC(=O)/C=C/C(=O)O/C=C/[N+](=O)[O-])c(C(C)(C)C)c1	> 100 µM	
COC1=C(NC(C)=O)C(=O)c2nc3n(c2C1=O)CCC3	36 µM	
CCOC(=O)C(=C=Cc1cccs1)C(=O)c1ccccc1	30.6 µM	
COc1ccc(-n2cc(-c3ccc(Cl)cc3)[nH]c2=S)cc1Cl	> 100 µM	76.6 µM
C=CC[n+]1c(/C=C2\Sc3ccccc3N2C)sc(-c2ccccc2)c1-c1ccccc1	10.9 µM	0.493 µM
COc1ccc(/C=N\N2C(=O)Cc3ccccc32)cc1	> 100 µM	
c1cc(C2O[C@H]3CCCN3[C@@H]2c2ccncc2)ccn1 (stereo partly specified)	> 100 µM	
COc1c2c(cc3oc(=O)ccc13)OC(C)(C)C=C2	> 125 µM	

Compound	TGI	GI50
Nc1c(Cl)ncnc1NCC1(CO)CCC1	> 100 µM	
COc1ccc2c(c1)Cc1cc(N=[N+]([O-])c3ccc4c(c3)Cc3cc(OC)ccc3-4)ccc1-2	> 100 µM	
COC(=O)C1=C(O)C(C(=O)OC)[C@@]2(O)[C@@H](C(=O)OC)C(c3ccccc3C(F)(F)F)C[C@@H]1[C@@H]2C(=O)OC (stereo partly specified)	25.5 µM	12.8 µM
CC(C)CC(NC(=O)[C@@H]1CCCN1C(=O)CNC(=O)c1ccc(N)cc1)C(=O)N[C@H](C)C(=O)NO (stereo partly specified) (H-[4Abz]GP[ξL][dA]-{NHOH})	> 100 µM	> 100 µM
Clc1ccc2nc3c(c(-c4ccccc4)nn3-c3ccccc3)c(-c3ccccc3)c2c1	> 100 µM	
O=C(CCCCCn1c2ccccc2c2c3c(c4c5ccccc5[nH]c4c21)C(=O)N(O)C3=O)N1CCOCC1	7.01 µM	2.29 µM
COc1cc(OC)cc(-c2n[nH]nc2-c2ccc3c(c2)OCO3)c1	> 100 µM	0.764 µM
CC(=O)O/N=C1\C=Cc2c(no[n+]2[O-])C1=O	45.4 µM	
COc1ccccc1NC(=O)CC(=O)NNCC(=O)Nc1nc(-c2ccccc2)cs1	> 100 µM	
Cc1cccc2c1NC(c1c(C)[nH]c3ccccc13)C2 (stereo unspecified)	> 100 µM	
C=C1CN(C(=O)c2cc3cc(OC)c(OC)c(OC)c3[nH]2)c2cc([N+](=O)[O-])ccc21	> 100 µM	
C=C1c2c(C)nn(-c3ccccc3)c2N(C)C23C[C@@H]1C1(C)c4c(C)nn(-c5ccccc5)c4N(C)C(C)(C[C@H]12)C3 (stereo partly specified)	> 100 µM	33.8 µM
Cc1cc2nc(N)n[n+]([O-])c2cc1C	> 100 µM	
N#CC1=C(N)NC(=S)NC1c1ccc(-c2ccc(-c3nc4ccccc4s3)cc2)o1 (stereo unspecified)	> 50 µM	> 50 µM
CC(C)(C)NC(=O)C12C3C4C1C1C2C3C41I (stereo unspecified)	> 100 µM	
CCCCc1c2c(nc3c1CCc1cc(C=O)c(N)nc1-3)/C(=C/c1ccccc1)CCC2	> 100 µM	
COc1cc(CNc2nc3cc(C(F)(F)F)ccc3nc2C(=O)O)cc(OC)c1OC	64 µM	
COC1=CC(=O)c2c(O)c3c(c(O)c2C1=O)CC(C)(O)OC3 (stereo unspecified)	11.9 µM	
Clc1cc(Cl)c2n[se]nc2c1	> 100 µM	
COc1ccc(/C(C#N)=C/c2nc3c(N4CCOCC4)nc(Cl)nc3n2C)cc1OC	14.2 µM	0.0102 µM
CN1CCN(c2nc(C3=C(c4c[nH]c5ccccc45)C(=O)NC3=O)c3ccccc3n2)CC1	52.1 µM and 43.7 µM	19.7 µM and 17.1 µM
O=C(O)C(=O)/C=C\c1ccc(Cl)cc1	> 100 µM	
CS(=O)(=O)c1nc(-c2cc3c(c(S(C)(=O)=O)n2)CCC3)cc2c1CCC2	> 100 µM	

Compound	TGI	GI50
N#CCCN(CCN(CCN(C(=O)Nc1ccccc1)c1ccccc1)C(=O)Nc1ccccc1)C(=O)Nc1ccccc1	> 100 µM	
COc1ccc2c(c1)C(CCN)C(=O)N2 (stereo unspecified)	> 100 µM	
CC(=O)OCC1OC(n2c(-c3ccc(N)cc3)cc(-c3ccco3)c(C#N)c2=O)C(OC(C)=O)C(OC(C)=O)C1OC(C)=O (stereo unspecified)	> 50 µM	
CCCc1c(OC)c(O)c2c(=O)cc(OC)c3c4c(OC)cc(=O)c5c(O)c(OC)c(CCC)c(c1c23)c54	> 100 µM	
c1ccc2c(c1)N=c1ccccc1=P21c2ccccc2Nc2ccccc21	13.4 µM	
CCCCCc1c(C)[nH]c(/C=C2\N=C(c3ccc[nH]3)C=C2Oc2ccc(OC)cc2)c1C	11 µM	0.337 µM and 0.0812 µM
Cc1cc(C)cc(NC(=O)CCC(=O)C2CCC/C2=N\NC(=O)C(=O)NN)c1 (stereo unspecified)	> 100 µM	
CCCCCCCC(=O)SCC/C=C/[C@@H]1CC(=O)NCc2cccc(n2)CN(Cc2ccc(Cl)cc2)CC(=O)N[C@@H](C(C)C)C(=O)O1	85.9 µM	15.2 µM
CC(=N\O)/C(C)=N/O.CC(=N\O)/C(C)=N/O.[Pd]	4.8 µM	2.02 µM
CC(CC(C)[C@H]1CCC2[C@H]3C(CC[C@@]21C)[C@@]1(C)CCC(O)C[C@H]1C[C@@H]3O)C(=O)O (stereo partly specified)	> 100 µM	
CCOC(=O)Cn1c(=O)c2cc(C)cc3c(Cl)nc4c(OC)c(OC)cc1c4c32	> 100 µM	
CCCCCCCCOCC(O)COC (stereo unspecified)	> 100 µM	
O=C(O)/C=C/C(=O)Nc1cccc2c1-c1ccccc1C2=O	> 100 µM	
N#CC1(Cc2ccccc2Cl)c2ccccc2C=CN1C(=O)c1ccccc1 (stereo unspecified)	> 100 µM	
CCOC(=O)C(NC(=O)Nc1ccccc1)(Nc1cccc(Cl)c1)C(F)(F)F (stereo unspecified)	> 100 µM	
CC1CCC(O)/C=C/C(=O)OC(C)C(O)/C=C/C(=O)O1 (stereo unspecified)	> 100 µM	
COC(=O)[C@@]12CC3CN(Cc4c1[nH]c1ccccc41)C2CC3=O	> 100 µM	
COC(=O)c1nc(N)[nH]c(=O)c1-c1ccc(Cl)cc1	> 100 µM	
COC(=O)/C=C1\C(=O)N(C(C)=O)c2ccccc21	31.5 µM	
Oc1cccc(-c2cc(=S)ss2)c1	39 µM	
CN(C)CCNc1ccccn1	> 100 µM	
Oc1ccc(Br)cc1CN1CCN(Cc2ccc(Cl)cc2)CC1	> 100 µM	64.1 µM
C(=C/c1ccc2nc(-c3ccc(/C=C/C=N/NC4=NCCCN4)cc3)cn2c1)/C=N/NC1=NCCCN1	46 µM	
